Source: publication PMC4336329 (PLoS ONE, 2015)
Out of some 310,000 compounds screened, about 2,200 (0.71%) showed an effect of 50% or more. Effects have a minus sign here. The list shows a part of the results.

What follows are compounds tested against human ether-à-go-go-related gene (hERG) potassium channel (human, UniProt Q12809) (assay: primary screen, population patch clamp on CHO cells stably expressing hERG).
Chain of human ether-à-go-go-related gene (hERG) potassium channel (Q12809 whole entry, looked up): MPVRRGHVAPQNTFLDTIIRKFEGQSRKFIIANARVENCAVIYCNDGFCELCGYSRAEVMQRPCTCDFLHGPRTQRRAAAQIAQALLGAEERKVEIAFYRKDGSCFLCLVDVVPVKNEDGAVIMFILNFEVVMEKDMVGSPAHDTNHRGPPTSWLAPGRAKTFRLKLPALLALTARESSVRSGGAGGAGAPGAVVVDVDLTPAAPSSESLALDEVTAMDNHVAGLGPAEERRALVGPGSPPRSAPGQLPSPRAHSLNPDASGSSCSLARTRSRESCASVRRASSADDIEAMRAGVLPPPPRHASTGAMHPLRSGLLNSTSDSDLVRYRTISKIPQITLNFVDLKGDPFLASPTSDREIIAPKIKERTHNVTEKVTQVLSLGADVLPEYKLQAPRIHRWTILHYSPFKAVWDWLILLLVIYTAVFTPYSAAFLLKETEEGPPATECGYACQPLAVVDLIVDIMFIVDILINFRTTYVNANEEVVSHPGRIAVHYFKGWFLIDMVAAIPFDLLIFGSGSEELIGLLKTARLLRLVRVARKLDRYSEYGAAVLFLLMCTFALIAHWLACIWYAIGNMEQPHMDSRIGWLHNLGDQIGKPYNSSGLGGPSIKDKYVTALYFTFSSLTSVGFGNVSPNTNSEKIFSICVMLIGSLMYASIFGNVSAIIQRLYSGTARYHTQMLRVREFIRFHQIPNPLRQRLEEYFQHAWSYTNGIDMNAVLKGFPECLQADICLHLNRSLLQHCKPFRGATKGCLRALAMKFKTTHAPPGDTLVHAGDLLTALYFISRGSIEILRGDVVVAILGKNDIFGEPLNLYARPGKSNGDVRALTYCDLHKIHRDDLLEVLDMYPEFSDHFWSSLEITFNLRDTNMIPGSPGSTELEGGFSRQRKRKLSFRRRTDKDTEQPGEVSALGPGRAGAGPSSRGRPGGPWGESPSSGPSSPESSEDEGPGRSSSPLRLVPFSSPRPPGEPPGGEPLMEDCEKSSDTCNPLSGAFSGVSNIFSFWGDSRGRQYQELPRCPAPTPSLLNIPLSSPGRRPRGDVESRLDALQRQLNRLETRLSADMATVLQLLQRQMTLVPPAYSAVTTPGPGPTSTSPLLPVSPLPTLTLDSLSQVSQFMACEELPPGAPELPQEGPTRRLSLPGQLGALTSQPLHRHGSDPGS

SMILES	hERG current change (%, negative = inhibition) at 1uM [%]
Cn1c(SCC(O)c2ccccc2)nnc1-c1ccc2ccccc2c1 (stereo not drawn)	-4.32
O=C(Cn1nc(Br)nc1Br)c1ccccc1	10.2
CCn1c(=O)n(CC)c2cc(S(=O)(=O)N3CCOCC3)ccc21	12.2
Br.COc1ccccc1Nc1nc(-c2cccc(N3C(=O)c4ccccc4C3=O)c2)cs1	12.3
O=C(C1CCCN(Cc2cccc(Cl)c2)C1)N1CCCCC1.O=C(O)C(=O)O (stereo not drawn)	11.9
Cc1ccc(-c2csc(NC(=O)CCCc3cccs3)n2)cc1	7.8
Cc1cccc2nc(CNC(=O)C3CCC(=O)N(Cc4ccccc4F)C3)cn12 (stereo not drawn)	13.7
CCC(=O)N1CCc2cc(S(=O)(=O)N3CCCCC3CC)ccc21 (stereo not drawn)	14.1
O=C(c1ccccc1)N1CCCC(C(=O)N2CCCCCC2)C1 (stereo not drawn)	7.12
O=C1NN(c2cccc(Br)c2)C(=O)/C1=C\c1ccc(N2CCOCC2)cc1	14.9
c1ccc(-c2nnc3n2-c2ccccc2SC3)cc1	4.65
COc1ccc([N+](=O)[O-])cc1NS(=O)(=O)c1ccccc1	3.49
CN(C(=O)CCNC(=O)Cn1ccc2ccccc2c1=O)c1ccc(Br)cc1	16.7
CCCC(=O)Nc1ccc2c(c1)COC2=O	9.46
Cc1ccc(CC2CC(=O)N(c3ccncc3)C2=O)cc1 (stereo not drawn)	5.58
CN(C)CCCN=C(NO)c1ccc(Cl)cc1Cl	11.2
CC(=O)N=c1sc2ccccc2n1C	16.6
O=S(=O)(c1cccs1)N1CCN(Cc2cccc(F)c2)CC1	20.4
N#C/C(=C\c1ccc(Cl)cc1)c1nc2ncccc2[nH]1	5.52

SMILES	hERG current change (%, negative = inhibition) at 1uM [%]
O=C(/C=C/c1ccco1)N1CCc2ccccc21	10.4
Cc1ccc(NC(=O)Cn2ccc([N+](=O)[O-])n2)cc1C	8.5
CCN1C(=O)C(CC(=O)Nc2cc(C)ccc2C)SC1=Nc1ccc(S(N)(=O)=O)cc1 (stereo not drawn)	0.831
CCNNC(=O)C(O)(Cc1ccccc1)Cc1ccccc1	18.2
O=C(Nc1ccc(CN2CCOCC2)cc1)c1ccc(N2CCCC2)c([N+](=O)[O-])c1	16.9
N#Cc1c(N)n(-c2ccccc2N)c2nc3ccccc3nc12	10
Cc1ccc(NC(=O)CCNS(=O)(=O)c2ccc3c(c2)oc(=O)n3C)cc1	-3.88
Cc1ccccc1NC(=O)c1ccc(-n2cncn2)nc1	1.37
Fc1ccc(C2c3[nH]c4ccccc4c3CCN2CCCn2cccn2)cc1 (stereo not drawn)	-14.3
COc1ccc([C@@H]2[C@H]3C(=O)N(c4cccc(C(F)(F)F)c4)C(=O)[C@H]3ON2C)cc1	-2.9
Cc1ccc(C2=CC(c3cccs3)n3nnnc3N2)cc1 (stereo not drawn)	-3.6
CCN1CCN(C(c2cccs2)C(C)NC(=O)c2c(F)cccc2F)CC1 (stereo not drawn)	1.34
COc1ccc(C2=NN(C(=O)c3ccc(Cl)c([N+](=O)[O-])c3)C(c3ccccc3)C2)cc1 (stereo not drawn)	10.5
O=C(COC(=O)c1cc(-c2cccs2)nn1-c1ccccc1)Nc1ccc(Cl)c([N+](=O)[O-])c1	12.9
COc1ccc(OC)c(NS(=O)(=O)c2ccc(Cl)s2)c1	4.05
CCn1cc(C(C)NC(=O)COc2ccc(Cl)cc2C)c(C)n1 (stereo not drawn)	14.2
O=C(C1CC1)N1CCN=C1SCc1cccc(F)c1	8.01
Cc1oc(-c2cccc(Cl)c2)nc1CN1CCC(C(=O)NCc2ccco2)CC1	-70.4
O=C(COC(=O)c1ccccc1OCc1ccc(Cl)cc1)NC1CC1	7.84

SMILES	hERG current change (%, negative = inhibition) at 1uM [%]
CC(=O)c1ccc(OCc2cc(C(=O)N(C)Cc3ccccn3)no2)cc1	-6.77
COc1ccc(C(=O)Oc2ccc3c(c2)OCO3)cc1OC	-0.734
O=C(O)C1C2CCC(C2)C1C(=O)NCc1ccco1 (stereo not drawn)	7.38
CCc1ccc(NC(=O)C(C)OC(=O)c2c(C)nn(Cc3ccccc3)c2Cl)cc1 (stereo not drawn)	2.51
Cc1cccc(-n2c(O)c(C=Nc3cccc(O)c3)c3ccccc3c2=O)n1	11.4
CC(=O)c1sc2c(c1N)c(=O)[nH]c(=O)n2-c1ccccc1	9.77
COC(C(=O)Nc1ccc(S(=O)(=O)N2CCCCC2)cc1)c1ccccc1 (stereo not drawn)	4.34
Cc1csc(N/N=C/c2ccccn2)n1	15.5
COc1ccc(OC)c(S(=O)(=O)N2CCCC(C(=O)NCc3ccco3)C2)c1 (stereo not drawn)	9.49
Cn1cccc1/C=C1\SC(=S)N(NC(=O)c2ccccc2Cl)C1=O	-2.66
CC1CCN(Cc2ccc(NC(=O)CC3Oc4ccccc4NC3=O)cc2)CC1 (stereo not drawn)	3.4
CCOc1ccc(C(C)=O)cc1CSc1nnnn1-c1ccc(O)cc1	-19.2
CC(C)(C)c1ccc(S(=O)(=O)N2CCCCC2)cc1	4.3
COc1ccc(/C(C)=N/NC(=O)OC(C)(C)C)cc1[N+](=O)[O-]	10.5
Cc1ccc(-n2c(SCC(=O)Nc3cccc(S(N)(=O)=O)c3)nc3ccccc32)cc1	-1.93
COc1ccc(N2C(=O)c3ccccc3NC2c2ccc(OC)c(CSc3ccccn3)c2)cc1 (stereo not drawn)	11.1
Fc1ccc(-c2oncc2-c2nnnn2-c2ccccc2)cc1F	-4.25
CCOc1ccc(S(=O)(=O)c2c(C(=O)c3ccccc3)cnc3cc4c(cc23)OCCO4)cc1	9.27
Cc1c(Nc2c3ccccc3nc3ccccc23)c(=O)n(-c2ccccc2)n1C	-47.4
